Measurements from the supplement of paper PMC10126150.
Values marked as one replicate rest on one cluster of the flow cell; about a third of the high ones do not repeat.

system: ATP; assay: switch fluorescence ratio, 500 uM ATP over buffer (Cy3 cluster intensity, sum of 5 cycles each) (fold (ratio)); higher = stronger signal-on switching upon ATP binding; sequences stand for … in TCGTCGGCAGCGTCAGATGTGTATAAGAGACAGTTTTTTTTTTTTTTTTTTTTTTTTT…TC; conditions: aptamer strand: ATP DNA aptamer (quencher-CACCTGGGGGAGTATTGCGGAGGAAGG + anchor), 100 nM annealed; ATP concentration: 500 uM; one replicate
Method in brief: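 Imaging in selection buffer was followed by imaging after 15 min with 500 uM ATP at 22 °C, for Cy3-labelled switching-strand clusters annealed to 100 nM quencher-labelled ATP aptamer on a modified Illumina MiSeq flow-cell. Five of these buffer/ATP cycles ran, separated by NaOH stripping and re-annealing. The fluorescence ratio per cluster is summed target-cycle over summed buffer-cycle Cy3 intensity, averaged per switch-domain sequence; clusters outside 100-1000 RFU were removed.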
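Also: ATP exposure 15 min at 22 °C before imaging.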

Sequence | switch fluorescence ratio
CTTATTGACG | 0.969
CTTATTGAGG | 0.971
CTTCACCAGT | 1.24
CTTCACGTAG | 1.06
CTTCATAATG | 1.04
CTTCATGTCG | 0.959
CTTCCCACAG | 1.75
CTTCCCGAGC | 2.44
CTTCCCGTTT | 1.26
CTTCGGTACT | 1.44
CTTCGGTGCG | 1.1
CTTCGTTAGG | 1.02
CTTCTCACAT | 1.01
CTTCTCTTGG | 1
CTTGACAGGC | 1.04
CTTGAGAGAT | 0.994
CTTGAGCCGG | 0.999
CTTGAGGCGT | 0.977
CTTGAGTTGC | 0.987
CTTGAGTTTC | 1.01
CTTGATCCGT | 1.17
CTTGCACCCG | 1
CTTGCCGGGT | 1.01
CTTGCTGCC | 1.09
CTTGGAAGTC | 1.05

Sequence | switch fluorescence ratio
CTTGGAGAAT | 0.967
CTTGGATCCT | 1.01
CTTGGATGAT | 1.05
CTTGGCAGCG | 0.992
CTTGGGGCCA | 1.02
CTTGGGTAGA | 1.02
CTTGGGTGGA | 0.99
CTTGGTAGCG | 1.03
CTTGGTTGTG | 0.984
CTTGTACGAA | 1.03
CTTGTATCTT | 1.01
CTTGTCAAGG | 1.04
CTTGTGAGCC | 1.05
CTTGTGTCGC | 1
CTTTAAAGT | 0.982
CTTTAAAGTG | 0.976
CTTTAACGTA | 1.08
CTTTAACTAC | 1.03
CTTTAATGCT | 1.12
CTTTACGTAA | 1.25
CTTTACGTTC | 1.04
CTTTAGGGCT | 1.03
CTTTATATTG | 0.981
CTTTATGGCA | 0.995
CTTTCAAAAT | 0.996

Sequence | switch fluorescence ratio
CTTTCATGTG | 0.968
CTTTCCAGTA | 1.03
CTTTCCCTGT | 0.991
CTTTCGGCTG | 0.96
CTTTCTTAAC | 1.26
CTTTCTTAGT | 1.04
CTTTGCTGAC | 2
CTTTGCTGCA | 0.978
CTTTGGCCGT | 1.01
CTTTGGCGAG | 0.986
CTTTGTTAGT | 1.01
CTTTTACCGA | 1
CTTTTATAGC | 1.03
CTTTTATGCC | 1
CTTTTATTCG | 1.09
CTTTTCACAA | 0.999
CTTTTCAGTC | 1.04
CTTTTCCAGA | 1.01
CTTTTGCAGA | 1.05
CTTTTGGTCC | 1.02
CTTTTTACAA | 0.97
CTTTTTGTTC | 0.988
GAAAAACAAG | 1.02
GAAAACCCTG | 0.921
GAAAACGTTA | 1.03

Sequence | switch fluorescence ratio
GAAAAGACCG | 1.02
GAAAAGCGCG | 1.02
GAAAAGGGTC | 0.982
GAAAATATTC | 1.03
GAAAATCGGG | 0.993
GAAAATTTGT | 0.98
GAAACCGACG | 2.29
GAAACCGTTT | 1.04
GAAACGGCTG | 1.03
GAAACGTGCG | 0.956
GAAACTAAGT | 0.949
GAAACTCTAT | 1.01
GAAACTCTT | 1.05
GAAAGACCAT | 0.98
GAAAGAGGCA | 0.982
GAAAGAGGTT | 0.972
GAAAGCCGCT | 0.996
GAAAGCCTGG | 0.993
GAAAGGCACC | 1.03
GAAAGGGCGA | 0.932
GAAAGGGTAA | 0.966
GAAAGTATCG | 0.968
GAAATCCGGC | 1.06
GAAATCCTGC | 1.03
GAAATGACCA | 0.954
